# Laboratory results: article PMC6919601, “Identification of Plasmodium dipeptidyl aminopeptidase allosteric inhibitors by high throughput screening” (PLoS ONE, 2019)
# Hit rate of the full screen: of about 110,000 compounds, about 230 (0.21%) showed an effect of 50% or more. The list shows a part of the results.
# Target: DPAP1 (Plasmodium falciparum, UniProt Q8IIJ9)
# Assay: primary screen, percent inhibition; read by cleavage of a fluorogenic dipeptide substrate; higher = more effect of the substance
# Design: species or system P. falciparum D10 trophozoite lysates; single well
# 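Further: 30 min substrate incubation versus DMSO and 10 µM JCP410 controls.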
# Sequence of DPAP1 (Q8IIJ9 whole entry, looked up): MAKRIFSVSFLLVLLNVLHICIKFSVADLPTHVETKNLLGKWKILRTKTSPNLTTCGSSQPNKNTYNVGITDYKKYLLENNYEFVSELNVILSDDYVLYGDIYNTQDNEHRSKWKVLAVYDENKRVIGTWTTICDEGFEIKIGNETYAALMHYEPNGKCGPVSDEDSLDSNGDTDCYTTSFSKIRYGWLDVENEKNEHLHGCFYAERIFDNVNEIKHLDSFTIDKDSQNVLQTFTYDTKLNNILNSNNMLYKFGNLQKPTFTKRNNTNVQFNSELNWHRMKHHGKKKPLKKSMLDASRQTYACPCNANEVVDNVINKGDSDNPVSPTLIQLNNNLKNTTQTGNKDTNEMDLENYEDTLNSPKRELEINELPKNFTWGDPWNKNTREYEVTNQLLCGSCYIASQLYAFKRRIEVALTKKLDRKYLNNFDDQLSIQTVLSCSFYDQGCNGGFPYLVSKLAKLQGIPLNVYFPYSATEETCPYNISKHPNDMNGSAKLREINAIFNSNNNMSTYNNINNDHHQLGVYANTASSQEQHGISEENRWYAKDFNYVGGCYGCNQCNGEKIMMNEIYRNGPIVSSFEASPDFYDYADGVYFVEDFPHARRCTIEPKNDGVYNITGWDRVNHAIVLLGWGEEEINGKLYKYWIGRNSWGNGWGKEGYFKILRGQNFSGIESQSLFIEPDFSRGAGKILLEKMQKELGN
row,SMILES,% Inhibition @ 10 uM
1,Cc1c(CC(=O)N2CCCCC2)c(=O)oc2cc(O)c(Cl)cc12,0.895%
2,Cc1cc(C)c2c(n1)sc1c(N3CCN(CCO)CC3)ncnc12,-5.41%
3,COc1ccccc1/C=C/C=C1\N=C(c2ccccc2F)OC1=O,1.64%
4,COc1ccc(C(=O)Nc2nnc(Cc3c[nH]c4ccccc34)s2)cc1,-6.17%
5,C=CCn1c2ccccc2n2nc(C)nc12,6.54%
6,CSc1ccc(CN2CCN(c3ccccc3)CC2)cc1,-6.47%
7,O=C(c1cc2cc(Br)ccc2oc1=O)N1CCCCCC1,1.08%
8,Cc1ccc2c(CNCc3ccc(C)o3)c(C(=O)O)n(Cc3cccc(F)c3)c2c1,3.47%
9,CCOC(=O)c1sc(N)c(C(=O)OC)c1C,4.26%
10,COc1ccc(NC(=O)c2ccc(C(C)(C)C)cc2)cc1OC,-2.67%
11,NC(=O)CC(c1ccccc1)c1ccco1 (centres unmarked),3.17%
12,CCc1cc(OC)c(OC)cc1C(C)NC(=O)c1ccccc1 (centres unmarked),-1.63%
13,COc1cc(C2C(C(=O)c3ccc(F)cc3)=C(O)C(=O)N2CCCCCC(=O)O)ccc1O (centres unmarked),-3.75%
14,COc1ccc(-c2c(C)nn3c(O)cc(Cc4ccccc4)nc23)cc1,6.66%
15,Fc1ccc(Oc2cc(-n3cncn3)nc(-c3ccccc3)n2)cc1,-3.71%
16,Cc1cc(C)cc(-n2cnc3cc(C(=O)NCc4cccnc4)ccc32)c1,-7.57%
17,O=C(Nc1ccc(Cl)cc1)Nc1cc(C(F)(F)F)ccc1Cl,7.35%
18,C=CCOc1ccc(C2N3CC4(C)CN2CC(C)(C3)C4)cc1 (centres unmarked),-0.0735%
19,C=CCOc1c(Cl)cc(CNc2nccs2)cc1OC,1.84%
20,COc1ccccc1N1C(=O)C2C3CCC(C3)C2C1=O (centres unmarked),-5.96%
21,CC(C)c1ccc(/C=C(\C#N)C(=O)NCc2cccnc2)cc1,10.8%
22,CCn1c(=O)/c(=C2/Sc3ccccc3N2C)s/c1=C1/C(=O)N(c2ccccc2)N=C1C,2.08%
23,CC1CN(Cc2ccccc2Br)CC(C)O1 (centres unmarked),2.41%
24,O=C(c1ccc(F)cc1)N1CCN(Cc2ccccc2F)CC1,-11.5%
25,CC1CCN(S(=O)(=O)c2ccc(NC(=O)c3ccccc3)cc2)CC1,-2.66%
26,CCc1sc(C2C(C#N)=C(N)Oc3[nH]nc(C)c32)cc1COc1ccccc1Cl (centres unmarked),3.05%
27,Sc1nnc(-c2ccccc2)n1-c1ccccc1,2.49%
28,Cc1ccc2occ(/C=C/C(=O)O)c(=O)c2c1,-2.37%
29,O=C(NCC1CCCO1)c1cc(-c2ccccc2F)no1 (centres unmarked),-4.49%
